In experiment [1] the target is GST-TBC1D23 (559 to 684) (mouse) (UniProt Q8K0F1). The experiment in a line: pull-down; GST-tagged bait from bacterial lysate on glutathione-Sepharose beads (washed, once with 500 mM NaCl), 2 h at 4°C with clarified bacterial lysate containing the prey; 50 mM tris pH 7.4, 150 mM NaCl, 1 mM EDTA, 5 mM 2-mercaptoethanol, 1% Triton X-100; Coomassie stain or anti-His6 …; only the target purified.

Amino acid sequences for entries named in this document (tags omitted). A change or cut given only in a name is not applied to a line headed by its entry. Chains listed by the source or under a name are the forms on record and can include a tag or linker. Residues count along the entry.
GST-TBC1D23 (559 to 684) (Q8K0F1, residues 559-684): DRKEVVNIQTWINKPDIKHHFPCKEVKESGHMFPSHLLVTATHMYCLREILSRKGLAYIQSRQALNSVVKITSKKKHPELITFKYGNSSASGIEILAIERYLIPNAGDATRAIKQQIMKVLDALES
Mouse TBC1D23 (559-677), C-terminal domain lacking VLDALES (Q8K0F1, residues 559-677): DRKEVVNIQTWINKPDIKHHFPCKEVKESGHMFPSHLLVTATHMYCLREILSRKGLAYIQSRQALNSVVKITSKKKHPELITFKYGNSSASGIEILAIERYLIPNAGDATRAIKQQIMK
TBC1D23 C-terminal domain I675W (Q8K0F1, form named): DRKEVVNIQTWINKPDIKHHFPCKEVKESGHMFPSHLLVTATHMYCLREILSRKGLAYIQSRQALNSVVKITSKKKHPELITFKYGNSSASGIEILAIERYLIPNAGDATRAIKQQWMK
TBC1D23 C-terminal domain V626D (Q8K0F1, form named): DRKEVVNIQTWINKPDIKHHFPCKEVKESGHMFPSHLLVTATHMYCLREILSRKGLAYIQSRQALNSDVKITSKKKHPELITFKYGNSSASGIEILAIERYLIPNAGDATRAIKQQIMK
TBC1D23 C-terminal domain with Lys632, Lys633 and Lys634 mutated to alanine (Q8K0F1, form named): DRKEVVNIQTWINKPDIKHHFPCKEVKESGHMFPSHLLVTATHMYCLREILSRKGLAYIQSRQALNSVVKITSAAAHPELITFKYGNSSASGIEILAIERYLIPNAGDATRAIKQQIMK

Experiment [2] concerns the target Mouse TBC1D23 (559-677), C-terminal domain lacking VLDALES (mouse) (UniProt Q8K0F1). The experiment in a line: crystal structure; TBC1D23 (559-677, -VLDALES) with 1.5 times molar excess of syntaxin-16 peptide; space group P6_(5)22; 0.8 M potassium phosphate dibasic, 0.1 M Hepes/NaOH pH 7.5, 0.8 M sodium phosphate monobasic, 1% 1,2-butandiol; both purified.
Experiment [3] has as its target Mouse TBC1D23 (559-684), C-terminal domain (mouse) (UniProt Q8K0F1). The experiment in a line: crystal structure; TBC1D23 full-length C-terminal domain (559-684) with 1.5 times molar excess of syntaxin-16 peptide; space group P6_(2)22, four copies in the asymmetric unit; 0.02 M citric acid, 0.08 M bis-tris propane pH 8.8, 16% PEG3350; both purified.
Experiment [4] concerns the target TBC1D23 C-terminal domain I675W (mouse) (UniProt Q8K0F1). The experiment in a line: ITC; peptide (0.8 to 5 mM) titrated into 100 μM TBC1D23 C-terminal domain, 20°C, 100 mM NaCl, 100 mM tris pH 7.4, 1 mM TCEP, Nano ITC; both purified. A general note: Isothermal titration calorimetry measures the heat released or taken up as one component is titrated into another.
The target in experiment [5] is TBC1D23 C-terminal domain V626D (mouse) (UniProt Q8K0F1). The experiment is described as above.
Experiment [6] concerns the target TBC1D23 C-terminal domain with Lys632, Lys633 and Lys634 mutated to alanine (mouse) (UniProt Q8K0F1). The description is as above.

Results are given in words; binding and its absence hold for the method and conditions named. For some assays here: In cells and extracts the contact can be indirect. Some entries that bind do so weakly or less than the wild type. For some assays here: Where a sequence is shown, tags or fusion partners need not be part of it.

Results on five molecules are retold here after article PMC11093223, “Cargo selective vesicle tethering: The structural basis for binding of specific cargo proteins by the Golgi tether component TBC1D23” (Science Advances, 2024).

B1: syntaxin-16 (1 to 281)–MBP–His6 (domain or fragment, UniProt O14662-2 1-281)
chain: MATRRLTDAFLLLRNNSIQNRQLLAEQLADDRMALVSGISLDPEAAIGVTKRPPPKWVDGVDEIQYDVGRIKQKMKELASLHDKHLNRPTLDDSSEEEHAIEITTQEITQLFHRCQRAVQALPSRARACSEQEGRLLGNVVASLAQALQELSTSFRHAQSGYLKRMKNREERSQHFFDTSVPLMDDGDDNTLYHRGFTEDQLVLVEQNTLMVEEREREIRQIVQSISDLNEIFRDLGAMIVEQGTVLDRIDYNVEQSCIKTEDGLKQLHKAEQYQKKNRKM
As for B1, the binding entry in experiment [1] is recorded as “binds”.

B2: syntaxin-16 (1-281 with T191A, L192A, and Y193A)–MBP–His6 (domain or fragment, UniProt O14662-2 1-281)
chain: MATRRLTDAFLLLRNNSIQNRQLLAEQLADDRMALVSGISLDPEAAIGVTKRPPPKWVDGVDEIQYDVGRIKQKMKELASLHDKHLNRPTLDDSSEEEHAIEITTQEITQLFHRCQRAVQALPSRARACSEQEGRLLGNVVASLAQALQELSTSFRHAQSGYLKRMKNREERSQHFFDTSVPLMDDGDDNAAAHRGFTEDQLVLVEQNTLMVEEREREIRQIVQSISDLNEIFRDLGAMIVEQGTVLDRIDYNVEQSCIKTEDGLKQLHKAEQYQKKNRKM
As to B2, the binding result in experiment [1] is on record as “no binding”.

For DDNTLYHRGFTED [syntaxin-16 peptide (209-221), wild type], the binding entry in experiment [2] and in experiment [3] was “binds” in each case.

B3: syntaxin-16 (151 to 225)–MBP–His6 (domain or fragment, UniProt O14662-2 151-225)
chain: LSTSFRHAQSGYLKRMKNREERSQHFFDTSVPLMDDGDDNTLYHRGFTEDQLVLVEQNTLMVEEREREIRQIVQS
As to B3, in experiment [1], the binding result was “binds”.

With DDNTLYHRGFTED (peptide, UniProt O14662 209-221) [syntaxin-16 (209–221) peptide], the binding result in experiment [4] is “no binding (tested: KD > 300 μM)”; in experiment [5], “no binding”; in experiment [6], “no binding”.
